Measured values as given in article PMC13086964, “USP7 deubiquitinase stabilizes FAN1 to support DNA crosslink repair and suppress CAG repeat expansion” (Nature Communications, 2026).
No constants are given. Whether binding was seen depends on the method and setting. Binding seen in cells or lysates may run through a third protein. Some results given as binding are weak or reduced against the parent protein; the word gives no strength.

Amino acid sequences for entries named in this document (tags omitted). A change or cut given only in a name is not applied to a line headed by its entry. Residues count along the entry.
UniProt Q9Y2M0: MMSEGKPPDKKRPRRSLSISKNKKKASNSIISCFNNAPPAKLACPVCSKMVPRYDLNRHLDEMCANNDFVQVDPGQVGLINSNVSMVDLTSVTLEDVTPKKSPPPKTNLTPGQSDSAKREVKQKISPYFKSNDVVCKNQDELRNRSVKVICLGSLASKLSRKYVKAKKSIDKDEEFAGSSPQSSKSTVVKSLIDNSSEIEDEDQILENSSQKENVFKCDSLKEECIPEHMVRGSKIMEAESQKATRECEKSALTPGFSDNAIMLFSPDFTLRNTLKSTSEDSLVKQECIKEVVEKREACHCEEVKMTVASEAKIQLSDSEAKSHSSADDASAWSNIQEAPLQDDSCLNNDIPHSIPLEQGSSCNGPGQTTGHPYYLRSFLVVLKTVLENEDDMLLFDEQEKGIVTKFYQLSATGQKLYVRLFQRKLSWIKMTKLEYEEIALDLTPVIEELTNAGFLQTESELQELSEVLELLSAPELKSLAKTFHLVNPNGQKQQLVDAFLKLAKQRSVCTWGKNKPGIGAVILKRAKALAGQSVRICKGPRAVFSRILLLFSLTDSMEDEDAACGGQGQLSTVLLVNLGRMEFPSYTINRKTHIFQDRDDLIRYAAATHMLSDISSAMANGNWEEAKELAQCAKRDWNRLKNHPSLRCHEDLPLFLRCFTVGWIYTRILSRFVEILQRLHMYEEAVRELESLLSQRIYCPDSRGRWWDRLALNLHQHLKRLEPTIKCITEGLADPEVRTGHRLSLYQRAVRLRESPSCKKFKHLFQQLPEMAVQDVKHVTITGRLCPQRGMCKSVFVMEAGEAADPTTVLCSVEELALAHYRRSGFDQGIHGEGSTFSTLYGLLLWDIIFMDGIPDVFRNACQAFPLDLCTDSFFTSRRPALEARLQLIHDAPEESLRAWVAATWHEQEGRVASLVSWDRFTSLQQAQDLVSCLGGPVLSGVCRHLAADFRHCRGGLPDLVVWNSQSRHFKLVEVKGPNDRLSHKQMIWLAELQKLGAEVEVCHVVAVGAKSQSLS
GFP-FAN1 N-terminal domain (aa 1-372, NTD): residues 1-372 of Q9Y2M0
GFP-FAN1 ΔNTD (aa 373-1017): residues 373-1017 of Q9Y2M0
UniProt Q93009: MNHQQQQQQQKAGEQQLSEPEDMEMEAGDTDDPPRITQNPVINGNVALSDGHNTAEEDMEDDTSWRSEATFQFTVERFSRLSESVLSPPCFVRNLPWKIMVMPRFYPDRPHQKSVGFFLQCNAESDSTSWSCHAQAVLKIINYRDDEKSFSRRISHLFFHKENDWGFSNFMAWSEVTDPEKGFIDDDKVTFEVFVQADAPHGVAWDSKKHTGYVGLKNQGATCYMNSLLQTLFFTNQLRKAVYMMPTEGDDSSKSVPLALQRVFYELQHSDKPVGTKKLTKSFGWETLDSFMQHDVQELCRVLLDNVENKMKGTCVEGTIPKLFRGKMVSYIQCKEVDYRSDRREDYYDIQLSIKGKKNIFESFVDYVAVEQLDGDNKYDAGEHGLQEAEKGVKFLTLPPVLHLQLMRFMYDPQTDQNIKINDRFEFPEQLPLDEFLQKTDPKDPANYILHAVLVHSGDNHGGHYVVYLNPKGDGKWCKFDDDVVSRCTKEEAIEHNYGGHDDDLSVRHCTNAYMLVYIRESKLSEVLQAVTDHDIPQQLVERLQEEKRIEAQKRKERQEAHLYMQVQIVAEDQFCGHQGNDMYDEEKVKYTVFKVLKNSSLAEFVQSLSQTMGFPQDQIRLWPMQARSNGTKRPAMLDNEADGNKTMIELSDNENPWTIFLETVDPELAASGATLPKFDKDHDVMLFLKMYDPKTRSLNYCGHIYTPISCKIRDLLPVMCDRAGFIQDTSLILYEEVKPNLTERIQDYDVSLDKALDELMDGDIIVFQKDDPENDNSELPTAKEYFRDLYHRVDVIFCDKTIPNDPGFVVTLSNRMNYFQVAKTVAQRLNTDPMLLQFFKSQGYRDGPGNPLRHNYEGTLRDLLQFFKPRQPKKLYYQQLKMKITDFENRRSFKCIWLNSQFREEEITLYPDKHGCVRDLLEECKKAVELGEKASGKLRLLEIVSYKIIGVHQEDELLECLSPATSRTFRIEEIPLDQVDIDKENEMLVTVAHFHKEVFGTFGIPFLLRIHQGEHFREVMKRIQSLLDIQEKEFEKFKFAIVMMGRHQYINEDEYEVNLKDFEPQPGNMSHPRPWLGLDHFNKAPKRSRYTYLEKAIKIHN
UniProt Q93008: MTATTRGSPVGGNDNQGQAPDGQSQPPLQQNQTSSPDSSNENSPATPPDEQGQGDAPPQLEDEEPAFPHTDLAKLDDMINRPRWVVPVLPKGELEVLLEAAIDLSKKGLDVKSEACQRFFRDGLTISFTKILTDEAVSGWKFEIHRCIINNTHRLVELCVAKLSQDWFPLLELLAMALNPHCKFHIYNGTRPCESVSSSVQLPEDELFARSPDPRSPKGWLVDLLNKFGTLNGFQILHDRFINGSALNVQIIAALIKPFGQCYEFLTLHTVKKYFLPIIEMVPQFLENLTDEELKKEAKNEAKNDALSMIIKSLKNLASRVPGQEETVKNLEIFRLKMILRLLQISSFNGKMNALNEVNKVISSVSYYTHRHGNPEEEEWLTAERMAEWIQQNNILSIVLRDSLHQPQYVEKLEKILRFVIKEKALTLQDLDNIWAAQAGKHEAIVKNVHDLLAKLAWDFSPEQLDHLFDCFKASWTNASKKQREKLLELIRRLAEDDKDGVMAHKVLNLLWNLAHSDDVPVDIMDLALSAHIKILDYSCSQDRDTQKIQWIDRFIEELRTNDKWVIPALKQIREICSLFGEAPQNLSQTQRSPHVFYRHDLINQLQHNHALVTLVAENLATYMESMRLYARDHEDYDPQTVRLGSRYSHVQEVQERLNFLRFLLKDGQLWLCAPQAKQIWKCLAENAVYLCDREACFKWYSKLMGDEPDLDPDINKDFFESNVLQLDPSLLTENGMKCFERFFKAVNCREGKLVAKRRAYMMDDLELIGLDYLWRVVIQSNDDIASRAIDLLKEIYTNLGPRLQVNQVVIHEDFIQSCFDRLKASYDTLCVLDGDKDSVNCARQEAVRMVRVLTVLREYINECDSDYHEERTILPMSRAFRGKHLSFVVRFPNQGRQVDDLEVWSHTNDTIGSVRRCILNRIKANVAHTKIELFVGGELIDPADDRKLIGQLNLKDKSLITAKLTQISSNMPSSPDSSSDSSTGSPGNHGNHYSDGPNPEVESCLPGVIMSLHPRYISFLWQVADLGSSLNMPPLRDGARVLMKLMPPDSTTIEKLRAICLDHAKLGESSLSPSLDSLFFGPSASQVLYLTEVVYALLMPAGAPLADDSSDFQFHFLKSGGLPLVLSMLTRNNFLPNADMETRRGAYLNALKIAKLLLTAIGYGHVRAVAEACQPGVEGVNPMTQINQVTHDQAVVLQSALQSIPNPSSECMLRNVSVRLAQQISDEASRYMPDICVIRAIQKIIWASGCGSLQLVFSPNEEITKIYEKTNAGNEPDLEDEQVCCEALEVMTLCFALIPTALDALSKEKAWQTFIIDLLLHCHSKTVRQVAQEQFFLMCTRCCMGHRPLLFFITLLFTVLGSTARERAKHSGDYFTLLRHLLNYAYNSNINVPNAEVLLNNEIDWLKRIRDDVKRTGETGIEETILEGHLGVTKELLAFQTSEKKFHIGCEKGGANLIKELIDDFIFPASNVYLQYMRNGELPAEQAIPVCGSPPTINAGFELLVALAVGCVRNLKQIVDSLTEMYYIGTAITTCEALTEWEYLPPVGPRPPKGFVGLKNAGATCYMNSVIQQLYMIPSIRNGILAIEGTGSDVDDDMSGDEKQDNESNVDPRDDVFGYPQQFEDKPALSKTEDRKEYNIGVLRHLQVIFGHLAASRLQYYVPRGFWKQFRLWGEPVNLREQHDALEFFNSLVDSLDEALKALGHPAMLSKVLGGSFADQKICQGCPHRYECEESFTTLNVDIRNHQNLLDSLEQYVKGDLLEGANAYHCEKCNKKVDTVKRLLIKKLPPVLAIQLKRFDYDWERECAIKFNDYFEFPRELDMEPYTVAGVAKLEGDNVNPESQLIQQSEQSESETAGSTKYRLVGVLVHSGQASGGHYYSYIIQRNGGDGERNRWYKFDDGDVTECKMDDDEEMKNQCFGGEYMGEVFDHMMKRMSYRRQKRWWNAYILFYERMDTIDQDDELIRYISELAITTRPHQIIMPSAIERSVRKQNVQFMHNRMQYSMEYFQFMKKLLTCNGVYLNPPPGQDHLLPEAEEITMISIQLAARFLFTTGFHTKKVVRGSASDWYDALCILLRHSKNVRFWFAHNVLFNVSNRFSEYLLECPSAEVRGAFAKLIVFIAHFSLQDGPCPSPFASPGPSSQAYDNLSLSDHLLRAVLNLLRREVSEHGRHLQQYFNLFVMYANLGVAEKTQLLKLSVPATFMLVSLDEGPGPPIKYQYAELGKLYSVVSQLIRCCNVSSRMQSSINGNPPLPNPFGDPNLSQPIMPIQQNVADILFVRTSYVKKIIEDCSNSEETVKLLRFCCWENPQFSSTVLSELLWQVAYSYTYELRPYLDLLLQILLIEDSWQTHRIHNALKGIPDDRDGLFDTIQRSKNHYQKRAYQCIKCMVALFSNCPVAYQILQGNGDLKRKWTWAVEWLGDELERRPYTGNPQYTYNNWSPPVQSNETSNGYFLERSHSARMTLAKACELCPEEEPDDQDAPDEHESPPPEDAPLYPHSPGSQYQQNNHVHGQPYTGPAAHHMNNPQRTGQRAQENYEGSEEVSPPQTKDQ

Experiments:
[1] = molecular target: GFP-FAN1 N-terminal domain (aa 1-372, NTD) (human) (UniProt Q9Y2M0); assay: co-IP; GFP-Trap agarose on whole-cell extracts (HEK293 eGFP-FAN1 cells induced with Dox, or HEK293 cells transfected with GFP-FAN1 constructs, with FLAG-USP7 in Fig. 1G); NP-40 buffer with 120 mM NaCl, Benzonase; 2 h or overnight, 4 °C; immunoblotting
[2] = molecular target: GFP-FAN1 ΔNTD (aa 373-1017) (human) (UniProt Q9Y2M0); assay: as above
[3] = molecular target: FLAG-USP7 D164A/W165A (TRAF domain mutant), full-length (human) (UniProt Q93009); assay: co-IP; anti-FLAG M2 affinity resin on whole-cell extracts of HEK293, HEK293 eGFP-FAN1 (Dox-induced) or HEK293T cells transfected with FLAG-USP7 constructs; NP-40 buffer with 120 mM NaCl, Benzonase; 4 °C; immunoblotting
[4] = molecular target: FLAG-USP7 wt, full-length (human) (UniProt Q93009); assay: as above
[5] = molecular target: GFP-FAN1 wild-type (wt), full-length (human) (UniProt Q9Y2M0); assay: co-IP; GFP-Trap agarose on whole-cell extracts (HEK293 eGFP-FAN1 cells induced with Dox, or HEK293 cells transfected with GFP-FAN1 constructs, with FLAG-USP7 in Fig. 1G); NP-40 buffer with 120 mM NaCl, Benzonase; 2 h or overnight, 4 °C; immunoblotting
[6] = molecular target: full-length GFP-FAN1 S184A (human) (UniProt Q9Y2M0); assay: as above
[7] = molecular target: endogenous FAN1 (HeLa cells) (human (endogenous in HeLa)) (UniProt Q9Y2M0); assay: co-IP; anti-FAN1 rabbit polyclonal antibody and Protein A Sepharose on 5 mg HeLa nuclear extract; 20 mM HEPES pH 7.9, 100 mM KCl; overnight, 4 °C; immunoblotting
[8] = molecular target: endogenous FAN1 (HeLa cells) (human (endogenous in HeLa)) (UniProt Q9Y2M0); assay: proximity ligation; in situ PLA (Duolink) in pre-extracted, fixed HeLa parental and FAN1 KO cells, mock-treated or treated with MMC (150 ng/ml, 24 h)

Substance	binding [3]	binding [4]	binding [5]	further results
FLAG-USP7 wt, full-length (from UniProt Q93009 1-1102) (enzyme)	–	–	–	binding [1]: binds; binding [2]: no binding
GFP-FAN1 wild-type (wt), full-length (from UniProt Q9Y2M0 1-1017)	binds weakly	binds	–	–
endogenous FAN1 (HEK293 and HEK293T cells) (from UniProt Q9Y2M0 1-1017)	binds weakly	binds	–	–
endogenous USP7 (HEK293 cells) (from UniProt Q93009 1-1102) (enzyme)	–	–	binds	binding [6]: binds
endogenous USP7 (HeLa cells) (from UniProt Q93009 1-1102) (enzyme)	–	–	–	binding [7]: binds; binding [8]: binds
endogenous USP9X (HEK293 cells) (from UniProt Q93008 1-2554) (enzyme)	–	–	binds	–
